Article PMC10668032
The other results are listed elsewhere or left out. At the low end of the ranking the order means little.

Molecular target: SIX1-Q177R homeodomain (UniProt Q15475)
Assay: universal protein binding microarray
Conditions: Universal all-10-mer PBM (8x60K, AMADID 030236), 300 nM GST-tagged protein, Alexa Fluor 488 anti-GST; buffer, salt, pH and temperature not stated; high values mean tight binding; most listed sequences are background and not binding sites; double strand, one strand shown

Row | Sequence | binding signal [E-score]
1 | ATAATGCC | 0.00387
2 | CTGACCAG | 0.033
3 | AATACTGT | -0.131
4 | AGGGTTCA | 0.0912
5 | AGGTCAAA | -0.106
6 | CTACACAG | 0.161
7 | ATAAACCA | -0.208
8 | CATGAGCA | -0.138
9 | ACCAACCG | 0.0753
10 | ATACCAAT | 0.0745
11 | GTGCCTGA | -0.108
12 | CCTCACAC | 0.279
13 | AAGCCCTG | -0.115
14 | GATATTGA | -0.13
15 | CAAAGCAG | -0.149
16 | AAATCCAG | -0.18
17 | AAGTCGAA | -0.276
18 | ACGAATTA | -0.09
19 | AATCATAG | 0.0132
20 | GTGGTAGA | 0.148
21 | AATAGTGG | 0.0603
22 | CCTCCCAC | 0.127
23 | CCGGGTGC | 0.224
24 | CAAAAGCG | -0.00548
25 | CGACATAA | -0.157

Row | Sequence | binding signal [E-score]
26 | AATTGCAC | 0.151
27 | ACGTATCG | 0.0747
28 | CCGCCACG | 0.0348
29 | GGATGCAA | -0.0448
30 | CGTGTGCA | 0.202
31 | ATTGCTTG | -0.166
32 | CCCAGGCA | -0.0845
33 | CTGTGGTA | -0.0554
34 | GAATTAAC | -0.0152
35 | CAGGTGCA | 0.0636
36 | CCTGTAAG | -0.0464
37 | TAACTGCA | 0.0233
38 | GTGCTGGA | 0.0205
39 | CCACCTGG | -0.0928
40 | CTTACCGC | -0.0924
41 | CGAAGGCA | -0.0825
42 | CAGAACTG | -0.293
43 | CTTCTCTC | -0.255
44 | CCATACAC | 0.396
45 | AGTGCACA | 0.171
46 | CAATACGG | -0.281
47 | ATTTTACG | -0.174
48 | AGGCACTC | -0.091
49 | GCGGACGC | -0.00925
50 | CCACGGTC | -0.16

Row | Sequence | binding signal [E-score]
51 | ATTAATTC | -0.108
52 | CTTTCGGC | -0.0973
53 | TCGGCAAA | -0.107
54 | CGCATGAC | 0.0335
55 | GGTCCGGA | 0.161
56 | ATTGCGGA | -0.098
57 | CAATATTG | 0.074
58 | CACCTTGG | 0.344
59 | AAGGGGGG | 0.122
60 | GTCTGTGA | 0.137
61 | CCCCGTAC | -0.0364
62 | ATGTCCAG | -0.22
63 | AGTACGCG | -0.00462
64 | AAGGTATA | -0.0748
65 | CAGATCAG | 0.125
66 | GTATTACA | 0.0751
67 | CAAACAGG | 0.0871
68 | AAGAAGAC | -0.139
69 | AATGGGGC | -0.14
70 | AAGGAGTA | 0.158
71 | GTGTTTCA | 0.357
72 | CGCAATCA | -0.141
73 | AACTCCCG | 0.181
74 | AATCGCAA | -0.243
75 | TACAAATA | -0.0592

Row | Sequence | binding signal [E-score]
76 | GCAATGCC | -0.092
77 | CACGCGGG | 0.241
78 | ACTAGAAC | 0.0257
79 | GCAGCCTA | -0.321
80 | TGTAGAAA | 0.225
81 | AGAGGAAA | -0.105
82 | AATCCTCC | -0.0411
83 | GCAATGAA | -0.117
84 | CAGGCACG | -0.0376
85 | ATCTAATG | -0.148
86 | ACCTTGTC | 0.0228
87 | AAAACGCC | -0.0522
88 | CAGGACCG | -0.263
89 | GCACGCTA | -0.0536
90 | CGGCCGGA | -0.113
91 | CTGCGCAC | -0.074
92 | CACGACGA | 0.0733
93 | CGGCACTC | -0.135
94 | GTTGGAGA | 0.115
95 | GAAGTGCA | -0.106
96 | GAACCGCC | -0.0714
97 | AAGAAGAT | -0.0845
98 | GGTGGAAA | -0.026
99 | CGGGTTAC | 0.159
100 | TAGGATAA | 0.0267

Row | Sequence | binding signal [E-score]
101 | AGGGTACG | 0.108
102 | AAAACAGC | -0.208
103 | GCCGCTCC | 0.0452
104 | CCTCCCTA | 0.123
105 | GTCACAAC | 0.0413
106 | CTCTGGTA | 0.004
107 | AGACCAAG | -0.114
108 | AATCCATT | -0.09
109 | CATTCGTC | -0.111
110 | CACGGAAA | 0.188
111 | GCCGTCCC | -0.243
112 | CGCACAAC | 0.0675
113 | CATGTACG | 0.0126
114 | AGGCGGAA | -0.12
115 | GCCGTCGC | -0.131
116 | TAAGCCAA | -0.172
117 | ACATATAT | -0.0591
118 | GACAATTA | -0.0168
119 | CGACACAC | 0.345
120 | CTGCCCAG | -0.178
121 | GCCCGTCA | -0.31
122 | CTTTCAAA | -0.235
123 | GAATTCAA | -0.171
124 | AGTTGTAA | -0.207
125 | TAGCTACA | 0.209

Row | Sequence | binding signal [E-score]
126 | CCACCACA | 0.108
127 | ATTCGGGG | 0.176
128 | CCCAAGAC | -0.0246
129 | GGTTTCCA | -0.0211
130 | CGACCGGC | -0.191
131 | AACGCTCG | -0.0221
132 | TACGATGA | -0.195
133 | CGGCCAGC | -0.0439
134 | CAATGGGG | 0.12
135 | AGTATGAA | -0.175
136 | CACCCTAG | 0.347
137 | GGGCTCGA | 0.058
138 | CCAAGTAC | 0.049
139 | AAGAGAGA | -0.154
140 | AGATTACG | -0.0816
141 | CTTACACC | 0.478
142 | CGTCACAG | -0.0338
143 | AGCCGTGG | -0.0758
144 | ATTACCCA | 0.0427
145 | ACAACGAT | -0.0936
146 | GGGAATGA | 0.0564
147 | GACTACGA | -0.126
148 | ACCCTTTG | 0.154
149 | ATTACGGG | -0.0647
150 | CGGCCCAC | -0.102

Row | Sequence | binding signal [E-score]
151 | AGTGACCG | -0.0505
152 | AACATGTA | -0.114
153 | AGCTCGGC | -0.212
154 | ACTCCCAA | 0.11
155 | ATTCCACG | -0.066
156 | AATAAGAG | -0.0565
157 | GGCAACAA | -0.111
158 | AGTGTCCC | 0.379
159 | CCACAGAC | -0.146
160 | CACCCATC | 0.277
161 | CCCTAACA | 0.181
162 | AATGCCGC | -0.144
163 | ACGGGACG | -0.143
164 | CGGGTATA | 0.21
165 | TAATGGCA | -0.225
166 | TAAGGACA | 0.142
167 | CATGTATA | -0.157
168 | AAATAAAA | -0.0799
169 | GTCGAACA | 0.119
170 | CATGGCTC | -0.167
171 | GGAAGGGA | -0.188
172 | GTATGTTA | 0.0962
